Among the data in the antibiotic and cytotoxicity screens of Wong et al. (2023) are cytotoxicity call and growth inhibition call values, retold here.

The list shows a part of the results.

Test [1] deals with HSkMC (human skeletal muscle cells). Nature of the test: cytotoxicity call (relative viability < 0.9). Conditions: 10 µM.
Test [2] relates to S. aureus RN4220. Put plainly: growth inhibition call (relative growth <= 0.2). Conditions: 50 µM.

For the compound `C[C@H]1CN([C@@H](C)CO)C(=O)CCCn2cc(nn2)CO[C@H]1CN(C)C(=O)Nc1ccccc1C(F)(F)F`, in test [1], the cytotoxicity call was “inactive”. Moreover, in test [2], the growth inhibition call is “inactive”.
For `O=C(C[C@@H]1C[C@H]2c3cc(NC(=O)c4ccc5c(c4)OCO5)ccc3O[C@H]2[C@@H](CO)O1)NCc1ccccn1`, the cytotoxicity call in test [1] was “inactive”. In addition, the growth inhibition call in test [2] was “inactive”.
`COc1ccc(S(=O)(=O)Nc2ccc3c(c2)C(=O)N([C@@H](C)CO)C[C@@H](C)[C@H](CN(C)C(=O)Nc2ccc(C(F)(F)F)cc2)OCCCC[C@H](C)O3)cc1`: the cytotoxicity call in test [1] is “inactive”. The growth inhibition call in test [2] was “inactive”.
As to `OC[C@H]1O[C@H](C#Cc2ccccc2)C=C[C@@H]1O`, the cytotoxicity call in test [1] is “inactive”. Moreover, the growth inhibition call in test [2] is “inactive”.
As to `C[C@H]1CN([C@@H](C)CO)C(=O)c2cc(NC(=O)CCN3CCOCC3)ccc2O[C@@H]1CN(C)C(=O)NC1CCCCC1`, in test [1], the cytotoxicity call is “inactive”. For the same compound, the growth inhibition call in test [2] was “inactive”.
`CCOC(=O)[C@H]1CC(C)=NNC1=O`: in test [1], the cytotoxicity call was “inactive”. Moreover, in test [2], the growth inhibition call was “inactive”.
Take `COc1ccc(-c2cnc3c(c2)C(=O)N([C@H](C)CO)C[C@H](C)[C@H](CN(C)S(=O)(=O)c2ccc(C#N)cc2)O3)cc1`: the cytotoxicity call in test [1] is “inactive”. For the same compound, the growth inhibition call in test [2] was “inactive”.
In the case of `O=C1O[C@H](c2ccccc2)[C@H](c2ccccc2)N2[C@H]1[C@@H](C(=O)O)[C@]1(C(=O)Nc3ccc(C#CC4(O)CCCCCC4)cc31)[C@H]2c1ccccc1OCCO`, the cytotoxicity call in test [1] was “inactive”. Also, the growth inhibition call in test [2] was “inactive”.
On to `C[C@@H]1CCCCO[C@@H](CN(C)Cc2ccc(C(F)(F)F)cc2)[C@H](C)CN([C@H](C)CO)C(=O)c2cc(NS(=O)(=O)c3ccc(F)cc3)ccc2O1`, for which the cytotoxicity call in test [1] was “inactive”. The growth inhibition call in test [2] was “inactive”.
As for `CCCNC(=O)N1C[C@H](O)COC[C@H]2O[C@@H](CC(=O)NCCCN3CCOCC3)CC[C@@H]21`, in test [1], the cytotoxicity call is “inactive”. Also, the growth inhibition call in test [2] was “inactive”.
With `C[C@@H]1CN([C@@H](C)CO)C(=O)c2cc(NC(=O)Nc3cccc4ccccc34)ccc2O[C@H]1CN(C)C(=O)NC1CCCCC1`, the cytotoxicity call in test [1] was “inactive”. Further, in test [2], the growth inhibition call was “inactive”.
For `CO[C@@H]1CN(C)C(=O)c2ccc(NC(=O)Nc3ccccc3F)cc2OC[C@@H](C)N(Cc2ccccc2F)C[C@H]1C`, in test [1], the cytotoxicity call was “inactive”. Also, in test [2], the growth inhibition call is “inactive”.
With `CN(C)C(=O)CN1CCC2(CC1)CN(CCn1cccn1)C(=O)CO2`, the cytotoxicity call in test [1] was “inactive”. In addition, in test [2], the growth inhibition call is “inactive”.
On to `COc1ccc(S(=O)(=O)N(C)C[C@@H]2Oc3ccc(NC(=O)C4CC4)cc3C(=O)N([C@@H](C)CO)C[C@H]2C)cc1`, for which the cytotoxicity call in test [1] is “inactive”. The growth inhibition call in test [2] is “inactive”.
Consider `COc1ccc(CN(C)C[C@@H]2Oc3ccc(NC(=O)C4CC4)cc3CC(=O)N([C@@H](C)CO)C[C@H]2C)cc1`, for which, in test [1], the cytotoxicity call was “inactive”. Further, the growth inhibition call in test [2] is “inactive”.
Consider `CCC(=O)OCC(=O)C1(OC(=O)CC)C(C)CC2C3CCC4=CC(=O)C=CC4(C)C3(F)C(O)CC21C` (configuration not stated), for which the cytotoxicity call in test [1] was “inactive”. The growth inhibition call in test [2] is “inactive”.
Take `Cc1ccc(S(=O)(=O)N(C)C[C@@H]2Oc3ccc(NC(=O)C4CC4)cc3CC(=O)N([C@@H](C)CO)C[C@H]2C)cc1`: the cytotoxicity call in test [1] is “inactive”. For the same compound, in test [2], the growth inhibition call was “inactive”.
On to `C[C@@H]1CN([C@@H](C)CO)C(=O)c2cc(NS(=O)(=O)c3ccccc3)ccc2O[C@@H](C)CCCCO[C@H]1CN(C)Cc1ccc(C(=O)O)cc1`, for which the cytotoxicity call in test [1] is “inactive”. Also, the growth inhibition call in test [2] is “inactive”.
In the case of `O=C(C[C@@H]1C=C[C@@H](NS(=O)(=O)c2ccccc2)[C@H](CO)O1)NCc1ccncn1`, the cytotoxicity call in test [1] is “inactive”. In test [2], the growth inhibition call is “inactive”.
Regarding `COc1ccc(S(=O)(=O)Nc2cccc3c2O[C@@H](CN(C)S(=O)(=O)c2ccc(F)cc2)[C@H](C)CN([C@@H](C)CO)C3=O)cc1`, the cytotoxicity call in test [1] was “inactive”. Also, in test [2], the growth inhibition call was “inactive”.
Take `COc1ccc(CN(C)C[C@@H]2Oc3ccc(NC(=O)CCN4CCOCC4)cc3C(=O)N([C@@H](C)CO)C[C@H]2C)cc1`: the cytotoxicity call in test [1] was “inactive”. Also, the growth inhibition call in test [2] is “inactive”.
Consider `C[C@@H]1CCCCO[C@H](CN(C)C(=O)C2CCCCC2)[C@@H](C)CN([C@H](C)CO)C(=O)c2cc(NC(=O)NC3CCCCC3)ccc2O1`, for which, in test [1], the cytotoxicity call is “inactive”. In test [2], the growth inhibition call was “inactive”.
For `CCS(=O)(=O)Nc1ccc2c(c1)C(=O)N(C)[C@H]1CC[C@H](CC(=O)N[C@@H]3CCN(Cc4ccccc4)C3)O[C@H]1CO2`, the cytotoxicity call in test [1] was “inactive”. The growth inhibition call in test [2] is “inactive”.
Take `Nc1cccc(-n2cc(CCC(=O)NO)nn2)c1`: the cytotoxicity call in test [1] was “inactive”. Moreover, the growth inhibition call in test [2] was “inactive”.
Turning to `C[C@@H]1CN([C@@H](C)CO)C(=O)c2cccc(NC(=O)c3ccncc3)c2O[C@@H]1CN(C)Cc1ccncc1`, in test [1], the cytotoxicity call was “inactive”. Also, the growth inhibition call in test [2] was “inactive”.
In the case of `O=C(C[C@@H]1CC[C@H](NS(=O)(=O)c2ccccc2F)[C@@H](CO)O1)NCCCN1CCOCC1`, the cytotoxicity call in test [1] is “inactive”. Besides, the growth inhibition call in test [2] was “inactive”.
